Structures are written as SMILES. Out of some 340,000 compounds screened, about 6,900 (2%) were called active. Rule as the data show it: active = inhibition above about 30%; inactive = below that, where a call was filed. The entries are a selection whose mix differs from that of the whole data set. The source gives no active or inactive call for entries shown without one.

Broadly, the inhibition is the change of the read-out against control, counted positive when it falls.

This assay concerns the target D(2) dopamine receptor (Homo sapiens) (UniProt P14416). Nature of the assay: HTS Assay for Allosteric Antagonists of the Human D2 Dopamine Receptor: Primary Screen for Antagonists. Also: 0% is about no effect. The conditions noted are these: HEK293 TREx D2 cells, calcium flux, dopamine EC80; at 10 µM; stronger effect = higher value. Put shortly: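 Dopamine at EC80 is the agonist stimulus; test compounds precede it by 180 s. Calcium flux read kinetically in a force-coupled, inducible HEK293 T-REx D2 cell line.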
UniProt P14416, sequence (P14416 whole entry, looked up): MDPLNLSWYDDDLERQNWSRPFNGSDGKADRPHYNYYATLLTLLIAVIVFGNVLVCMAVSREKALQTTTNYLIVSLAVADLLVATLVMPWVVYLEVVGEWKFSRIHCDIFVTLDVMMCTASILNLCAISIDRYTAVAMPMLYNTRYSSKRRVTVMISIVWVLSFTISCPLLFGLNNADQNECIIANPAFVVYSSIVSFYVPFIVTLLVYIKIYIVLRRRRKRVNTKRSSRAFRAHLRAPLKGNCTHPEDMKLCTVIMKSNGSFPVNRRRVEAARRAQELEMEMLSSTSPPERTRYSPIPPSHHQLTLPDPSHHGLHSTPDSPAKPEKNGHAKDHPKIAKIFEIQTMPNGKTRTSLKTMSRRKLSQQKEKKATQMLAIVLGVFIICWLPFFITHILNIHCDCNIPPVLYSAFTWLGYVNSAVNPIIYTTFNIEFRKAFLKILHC
For orientation: Calcium flux is commonly read through the fluorescence of an indicator in the cells.
As to `Cc1cccc(NC(c2nnc(-c3ccccc3)o2)c2ccc(F)cc2Cl)c1C` (stereo unspecified), the inhibition was determined as 13.1%.

For `Cc1ccc(Cl)cc1N1CCN(C(=O)C2CCN(S(=O)(=O)c3c(C)noc3/C=C/c3ccccc3F)CC2)CC1`, the inhibition was -0.957%.

`CC(C)c1nn2c(=O)cc(COC(=O)COc3ccccc3F)nc2s1`: the inhibition is -11.6%.

For the molecule `O=C(NCc1ccccc1)c1ccc2c(c1)sc1nc(-c3ccc(F)cc3)cn12`, the inhibition is -6.1%.

On to `Cc1ccc(C)c(N2CCN(CCCNC(=O)c3ccc4nc(C(C)C)oc4c3)CC2)c1`, for which the inhibition was found to be 15.5%.

`COc1cccc(-c2cn3c(n2)sc2cc(C(=O)NCCc4ccccc4)ccc23)c1`: the inhibition is -3.64%.

Turning to `Cc1nn(C)c2c1c(C(F)(F)F)cc(=O)n2C(C)C(=O)NCc1ccccc1` (stereo unspecified), the inhibition turned out to be 16%.

Consider `CCOCCc1nn2c(=O)cc(COC(=O)c3ccc4c(c3)OCO4)nc2s1`, for which the inhibition is -1.05%.

As to `CCCC12CN3CCN(CC(C3)/C1=N\NC(=O)Nc1ccccc1)C2`, the inhibition was active: 53.9%.

In the case of `Cc1ccc(CNc2nc3nc(C)c(Cl)c(C)n3n2)cc1`, the inhibition is -0.684%.

Take `O=S(=O)(c1ccc(Br)cc1)N1CCn2cccc2C1c1ccc(Br)cc1` (stereo unspecified): the inhibition was found to be 14.5%.

For `COc1ccc(-c2nc(CS(=O)CC(=O)NCc3ccccc3Cl)c(C)o2)cc1OC` (stereo unspecified), the inhibition is -1.7%.

As to `Cn1c(C(=O)Nc2cccc(Cl)c2)cc2c(=O)n(C)c3ccccc3c21`, the inhibition was found to be 10.3%.

For `O=[N+]([O-])c1ccc(OCCN2CCNCC2)cc1`, the inhibition was active: 31.8%.

In the case of `CCCn1c2ccc(C)cc2c2nnc(SCCN3CCCCC3)nc21`, the inhibition was found to be 16.5%.

In the case of `O=C(CN1C(=O)CC(c2ccco2)Sc2ccccc21)Nc1ccc(OC(F)(F)F)cc1` (stereo unspecified), the inhibition is -13.8%.

Consider `Cc1ccc(S(=O)(=O)Nc2nc3n(n2)C(c2ccc(Cl)cc2)C=C(c2ccccc2)N3)cc1` (stereo unspecified), for which the inhibition amounted to 2.31%.

For `CCOc1ccc(C2CC(=O)c3c([nH]c(C(=O)OC4CCCCCC4)c3C)C2)cc1` (stereo unspecified), the inhibition came out at 17.9%.

In the case of `COc1ccc(C(=O)NCC(c2cccs2)S(=O)(=O)c2cccs2)cc1` (stereo unspecified), the inhibition was 4.07%.

Turning to `Cc1ccc(NC(=O)[C@H](Cc2ccccc2)N2Cc3ccccc3C2=O)cc1F`, the inhibition is 7.6%.

With `CC1=C(C(=O)OC2CCCCCC2)C(c2c(Cl)cccc2Cl)CC(=O)N1` (stereo unspecified), the inhibition amounted to 6.4%.

Turning to `CCc1ccccc1NC(=O)Cn1c(=O)oc2ccccc21`, the inhibition worked out at 11.7%.

On to `CCOc1ccc(CCNC(c2nnc(-c3ccccc3)o2)c2ccccc2Cl)cc1OCC` (stereo unspecified), for which the inhibition was -3.2%.

With `COC(=O)c1ccc(CSc2nc3ccncc3n2Cc2ccc(F)cc2)cc1`, the inhibition was -0.52%.

With `COCC(C)Nc1ncnc2c1cnn2-c1cccc(Cl)c1` (stereo unspecified), the inhibition turned out to be 3.51%.

Regarding `COc1ccc(C(=O)Oc2ccc(C3NC(=O)c4c(sc5c4CCN(C)C5)N3)cc2OC)cc1` (stereo unspecified), the inhibition was determined as 6.24%.

For the molecule `COc1ccc(NC(=O)c2ccc3oc(=O)c(S(=O)(=O)c4ccc(F)cc4)cc3c2)c(OC)c1`, the inhibition was 11.3%.

In the case of `CC(C)c1nc2sc3c(N4CCCCC4)ncnc3c2c2c1CCCC2`, the inhibition came out at 1.81%.

Turning to `COc1ccc(CC(=O)Nc2ccc(-c3nc4ccccc4s3)c(C)c2)cc1`, the inhibition was determined as 12%.

With `CCOC(=O)c1cc(CC)sc1NC(=O)COc1ccccc1C`, the inhibition was -2.25%.

Consider `COc1ccc(C(=O)NCC(c2ccc3c(c2)OCO3)N2CCN(C)CC2)cc1OC` (stereo unspecified), for which the inhibition amounted to 11.7%.

With `Cc1cc(NC(=O)CN2CCC(O)CC2)nc2c1c(=O)oc1ccccc12`, the inhibition is -2.37%.

Regarding `CCN1CCN(c2ncnc3c2cnn3-c2ccc(F)cc2)CC1`, the inhibition came to 15.4%.

As for `CCn1c(=O)n(CC2CCC(C(=O)NC(C)C)CC2)c(=O)c2sccc21` (stereo unspecified), the inhibition was found to be 7.25%.

Consider `COc1ccc(NC(=O)CSc2c(C(C)C)cnc3c2c(=O)n(C)c(=O)n3C)c(OC)c1`, for which the inhibition is -15.4%.

`CC(C)CNc1cc(NC2CCCCC2)c2c3c(onc13)-c1ccccc1C2=O`: the inhibition turned out to be 7.85%.

Take `Cc1ccc(Cl)cc1N1CCN(C(=O)c2cn(C)c3ccc(S(=O)(=O)N4CCCCC4)cc3c2=O)CC1`: the inhibition turned out to be 1.98%.

Take `O=S(=O)(Nc1cccc(-c2ccc(N3CCCCC3)nn2)c1)c1ccc(F)cc1F`: the inhibition was -7.24%.

In the case of `COC(=O)CN1C(c2ccc(Cl)cc2)=Nc2ccc(Cl)cc2C1c1ccccc1` (stereo unspecified), the inhibition is active: 48.9%.

For `COc1cccc(CNCc2c(C(=O)O)c(C)n(Cc3ccc(F)cc3Cl)c2C)c1OC`, the inhibition was 16.6%.

In the case of `CCSc1nc2sc3c(c2c(=O)n1-c1ccc(C)cc1)CCCC3`, the inhibition is 13.1%.

As to `O=C(CC1N=C2c3ccccc3N=C(SCc3cccc(F)c3)N2C1=O)NC1CCCCC1` (stereo unspecified), the inhibition stood at 0.0924%.

As for `CCC(C(=O)NCCc1ccc(SC)cc1)n1nc(C)c2c(C)n(-c3ccc(C)cc3)nc2c1=O` (stereo unspecified), the inhibition was -6.66%.

For the molecule `CCS(=O)(=O)N1Cc2ccccc2CC1C(=O)N(C)CC(=O)Nc1cccc(F)c1` (stereo unspecified), the inhibition was active: 40.5%.

As for `COc1cc(C2CC(=O)N(CC(=O)Nc3ccccc3F)c3ccccc3S2)cc(OC)c1OC` (stereo unspecified), the inhibition is -9.4%.

`O=C(Nc1ccc(F)cc1F)c1cc(-c2ccc3c(c2)OCO3)on1`: the inhibition was -3.99%.

`Cc1ccc(-n2nc(CO)c(C(=O)NC(C)c3ccccc3)n2)cc1C` (stereo unspecified): the inhibition was 14.1%.

Take `COC(=O)c1sc2ccccc2c1S(=O)(=O)N1CCN(c2ccc(C(C)=O)cc2)CC1`: the inhibition stood at 0.614%.

On to `Cc1ccc(CCNC(=O)c2ccc(CSc3nc4ccncc4n3Cc3ccc(F)cc3)cc2)cc1`, for which the inhibition was found to be 14.1%.

As to `COC(=O)c1ccccc1NC(=O)CCc1c(C)nc2cc(-c3ccc(Cl)cc3)nn2c1C`, the inhibition is -2.09%.

With `Cc1cccc(OCC(=O)Nc2cccc(-c3nc4ccccc4s3)c2)c1`, the inhibition was -2.5%.

As to `CC(=O)c1cc(-c2ccc(F)cc2)n(CCC(=O)NC2CCCCC2)c1C`, the inhibition is -0.826%.

Take `COc1cc(NC(=O)c2cc3cc4cc(OC)ccc4nc3o2)cc(OC)c1`: the inhibition was -1.21%.

In the case of `Fc1ccc(Cc2cn3cc(-c4ccc(F)cc4)nc3s2)cc1`, the inhibition amounted to 13%.

On to `O=C(Cn1c(=O)n(Cc2ccco2)c(=O)c2sc3ccccc3c21)Nc1ccccc1C(F)(F)F`, for which the inhibition was 9.74%.

With `CCOc1ccccc1NC(=O)c1ccc(C(=O)Nc2ccccc2OCC)cc1`, the inhibition was -6.71%.

For the molecule `Cc1nc2nc(C)c(CCC(=O)NCc3cccc(Cl)c3)c(C)n2n1`, the inhibition is -13.6%.

As for `COc1ccc(C2=C(C(C)=O)Sc3nnc(-c4ccccc4)n3N2C(C)=O)cc1`, the inhibition was 22.9%.

Turning to `CC(=O)NCCNC(=O)c1ccc2c(=O)n(CCc3ccccc3)c(=O)[nH]c2c1`, the inhibition was 7.67%.

On to `CSc1ncc(C(=O)N2CCN(c3ccc(Cl)cc3)CC2)c(C)n1`, for which the inhibition was found to be 25.8%.

As to `CCc1nn(CC(=O)NCCCN2CCN(C)CC2)c(=O)c2cc3occc3n12`, the inhibition amounted to 8.07%.

On to `COc1ccc(C(=O)c2c(N)c(-c3nc(-c4ccccc4)cs3)c3ccccn23)cc1`, for which the inhibition was -2.02%.

Take `COc1ccc(S(=O)(=O)NCC(c2ccc3c(c2)OCO3)N2CCN(c3ccccc3)CC2)cc1` (stereo unspecified): the inhibition was active: 72.8%.

As for `COc1ccc(C)cc1NC(=O)c1oc2ccc(S(=O)(=O)N3CCOCC3)cc2c1C`, the inhibition is -16.6%.

Regarding `CSc1cccc(NC(=O)CC(c2ccc(F)cc2)N2Cc3ccccc3C2=O)c1` (stereo unspecified), the inhibition is -15.1%.

As to `COc1ccc(OC)c(NC(=O)CSC2=Nc3ccccc3C3=NC(CCC(=O)NC4CCCCC4)C(=O)N23)c1` (stereo unspecified), the inhibition was -24.5%.

For `COC(=O)c1c(NC(=O)COc2ccc(Cl)cc2C)sc2c1CCCCC2`, the inhibition was -7.81%.

As to `O=[N+]([O-])c1ccc(CN2CCN(c3ncccn3)CC2)cc1`, the inhibition was active: 85%.

On to `COc1ccc(N2CCN(C(=O)CCc3c(C)nc4cc(-c5cccc(F)c5)nn4c3C)CC2)cc1`, for which the inhibition amounted to 26.6%.

With `Cc1ccccc1C(=O)N1CCCCC1CCN1CCCCC1` (stereo unspecified), the inhibition is -12.6%.

As to `Cc1ccc(/C=C/c2nc3ccccc3n2S(=O)(=O)c2ccc(Br)cc2)cc1`, the inhibition stood at 6.18%.

`CC(=O)N1CCc2c(sc3c2c(=O)n(-c2ccccc2)c(=O)n3Cc2cccc(C(F)(F)F)c2)C1`: the inhibition is -5.03%.

As to `CCOC(=O)c1cnc2c(ccc3ccccc32)c1Nc1ccc(OC)cc1OC`, the inhibition was -2.03%.

As for `COc1cccc(N=C2SC(C(=O)Nc3cccc(Cl)c3)CC(=O)N2C)c1` (stereo unspecified), the inhibition is -17.7%.

For the molecule `COc1cc(C2=Nc3ccc(Br)cc3C(c3ccccc3)N2CC(=O)NN)cc(OC)c1OC` (stereo unspecified), the inhibition was active: 86.1%.

Take `CCCn1c2ccccc2c2cnn(CC(=O)NC3CCCC(C)C3C)c(=O)c21` (stereo unspecified): the inhibition is active: 34.8%.

Consider `Cc1ccc(CCNS(=O)(=O)c2ccc3c(c2)CCN3C(=O)CCC(=O)O)cc1`, for which the inhibition is 14.1%.

For `O=C(NCCNC1CCC(c2ccccc2)CC1)c1cccs1` (stereo unspecified), the inhibition is active: 48.2%.

As to `CCc1ccc(NC(=O)CCc2c(C)n(C)c3cc(-c4ccccc4C)nn3c2=O)cc1`, the inhibition was -4.88%.

For `Cc1cccc(N2CCN(C(=O)CCCn3ncn4c(cc5occc54)c3=O)CC2)c1C`, the inhibition stood at 5.71%.

As for `Cn1c(=O)n(C)c2cc(N3CCOCC3)c(NS(=O)(=O)c3ccc(Br)cc3)cc21`, the inhibition worked out at 0.283%.

On to `O=C(NCC(c1cccnc1)N1CCc2ccccc2C1)C(=O)Nc1cccc(Cl)c1` (stereo unspecified), for which the inhibition is 8.06%.

As for `O=C(Cc1ccc(F)cc1)Nc1cccc(-c2nc3cccnc3s2)c1`, the inhibition was 2.93%.

For `COc1ccc(-c2cc(C(=O)NCCc3ccccc3)c3c(-c4ccccc4)[nH]nc3n2)cc1`, the inhibition was 0.871%.

`CC(=O)N1CCCC1c1nc2ccccc2n1Cc1cc(C)ccc1C` (stereo unspecified): the inhibition is 10%.

As to `CCOC(=O)N1CCN(S(=O)(=O)N2CCCC(C(=O)NCc3ccccc3OC)C2)CC1` (stereo unspecified), the inhibition was -3.98%.

As for `Cc1ccc2ccc3cc(C(=O)Nc4ccc(C)c(F)c4)nc3c2[nH]1`, the inhibition turned out to be 6.79%.

In the case of `CCOC(=O)c1ccc(CN(Cc2ccc(F)cc2)S(=O)(=O)c2cc(C(=O)Nc3ccccc3CC)ccc2F)cc1`, the inhibition was -2.19%.

Regarding `COc1ccc(NC(=O)C2CCCN(S(=O)(=O)c3ccc4[nH]c(=O)ccc4c3)C2)cc1OC` (stereo unspecified), the inhibition was determined as 8.98%.

As for `Cc1cccc(NC(=O)CSc2nc(C)c(Cc3ccccc3)c(=O)[nH]2)c1C`, the inhibition turned out to be 2.97%.

On to `Cc1ccc(CNC(=O)c2cc(Sc3ccc(F)cc3F)nc3ccccc23)cc1`, for which the inhibition was 12.6%.

On to `CCC(C(=O)N(C)Cc1ccccc1)n1nc(C)c2sc3ccccc3c2c1=O` (stereo unspecified), for which the inhibition was -1.28%.

Turning to `COc1ccc(CNC(=O)CCc2c(C)nn(-c3ccc(N4CCOCC4)nn3)c2C)cc1`, the inhibition amounted to 14.1%.

`COc1ccc(CCNC(=O)C2=C(C)C(=O)OC23CCCCC3)c(OC)c1`: the inhibition was -4.6%.

Consider `COc1cc(OC)c(NC(=O)CN(C)S(=O)(=O)c2ccc3c(c2)CCCC(=O)N3)cc1Cl`, for which the inhibition stood at 6.13%.

For `CCc1ccc(C(=O)c2cn(CC(=O)Nc3cccc(C)c3C)c3nc(C)ccc3c2=O)cc1`, the inhibition stood at 24%.

These data come from PubChem BioAssay AID485344 (National Center for Advancing Translational Sciences (NCATS), 2010).
